Among all 310,000 compounds or so, about 2,200 (0.71%) showed an effect of 50% or more. The effect is printed as a negative number. The list shows a part of the results.
Target: human ether-à-go-go-related gene (hERG) potassium channel (human, UniProt Q12809)
Experiment: primary screen, population patch clamp on CHO cells stably expressing hERG

Sequence of human ether-à-go-go-related gene (hERG) potassium channel (Q12809 whole entry, looked up): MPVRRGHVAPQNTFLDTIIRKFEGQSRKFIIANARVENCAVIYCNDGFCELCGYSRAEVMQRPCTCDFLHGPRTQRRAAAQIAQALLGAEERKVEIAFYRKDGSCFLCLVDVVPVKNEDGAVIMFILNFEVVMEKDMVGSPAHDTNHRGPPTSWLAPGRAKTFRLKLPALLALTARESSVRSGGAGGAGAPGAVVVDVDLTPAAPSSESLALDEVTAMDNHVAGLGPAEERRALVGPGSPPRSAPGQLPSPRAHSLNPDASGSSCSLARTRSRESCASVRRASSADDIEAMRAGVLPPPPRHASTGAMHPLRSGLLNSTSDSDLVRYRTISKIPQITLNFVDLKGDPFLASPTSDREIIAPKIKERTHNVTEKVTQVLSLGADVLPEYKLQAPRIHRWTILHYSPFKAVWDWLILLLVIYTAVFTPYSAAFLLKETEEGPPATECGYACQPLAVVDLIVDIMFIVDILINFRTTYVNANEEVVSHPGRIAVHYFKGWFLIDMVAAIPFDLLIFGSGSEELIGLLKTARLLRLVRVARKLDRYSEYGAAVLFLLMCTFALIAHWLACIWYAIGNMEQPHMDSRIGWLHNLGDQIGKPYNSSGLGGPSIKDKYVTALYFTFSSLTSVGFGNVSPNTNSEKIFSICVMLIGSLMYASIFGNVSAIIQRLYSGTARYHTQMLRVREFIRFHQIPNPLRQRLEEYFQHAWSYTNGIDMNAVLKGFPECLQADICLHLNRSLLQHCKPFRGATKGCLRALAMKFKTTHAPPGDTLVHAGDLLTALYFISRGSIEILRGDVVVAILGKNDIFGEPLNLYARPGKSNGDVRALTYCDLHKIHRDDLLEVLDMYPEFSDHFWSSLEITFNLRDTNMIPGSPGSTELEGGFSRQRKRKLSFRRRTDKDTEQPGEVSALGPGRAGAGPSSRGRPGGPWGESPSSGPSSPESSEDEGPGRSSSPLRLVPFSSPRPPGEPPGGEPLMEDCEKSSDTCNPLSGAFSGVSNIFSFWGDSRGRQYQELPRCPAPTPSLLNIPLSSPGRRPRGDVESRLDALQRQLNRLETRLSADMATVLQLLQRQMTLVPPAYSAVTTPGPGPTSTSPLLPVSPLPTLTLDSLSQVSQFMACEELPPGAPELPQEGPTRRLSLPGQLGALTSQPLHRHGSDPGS

| SMILES | hERG current change (%, negative = inhibition) at 1uM |
| --- | --- |
| O=C(NCc1ccc(Cl)cc1)C1CCC(CNc2c(N3CCOCC3)c(=O)c2=O)CC1 (centres unmarked) | 17.2% |
| CC(C)(O)C#Cc1ccc(C(=O)N2CCN(c3ccc([N+](=O)[O-])cc3)CC2)cc1 | -16.8% |
| Cc1[nH]n(-c2ccc(Br)cc2)c(=O)c1/C=N/NC(=O)c1ccccc1 | 12.2% |
| COc1ccc(-c2noc(COc3ccc4c(c3)OCO4)n2)cc1OC | -0.961% |
| COc1ccccc1CNC(=O)COC(=O)c1nc(Cl)ccc1Cl | 8.06% |
| Cn1cc(C(=O)Nc2ccc(F)c(Cl)c2)cn1 | 5.16% |
| CC1=C(C(=O)OCC2CCCCC2)C(c2ccc(O)cc2)NC(=O)N1 (centres unmarked) | 13.2% |
| CCCCN(CC)Cc1ccc(CNC(=O)Nc2ccc(F)cc2)o1 | -12.4% |
| CN(C(=O)COC(=O)CNC(=O)c1ccc(Cl)cc1Cl)c1ccccc1 | 20.3% |
| CCOC(=O)CCNC(=O)N1CCC(CCC(=O)NCc2ccc(F)cc2)CC1 | 9.83% |
| C=CCN(Cc1cc(OC)ccc1OC)S(=O)(=O)N(C)C | 7.8% |
| COC(=O)C1=C(C)N(c2ccc(OC)c(OC)c2)C(=O)C1 | 8.06% |
| O=C1C2C3CCCC3=C3CCCC3C2C(=O)N1c1ccc(F)cc1 (centres unmarked) | 2.62% |
| c1ccc2c(-c3nnc4n3CCCCC4)cc(-c3ccncc3)nc2c1 | -13.9% |
| CC1(C)CC(=O)c2cnc(NC(=O)CCc3ccccc3)nc2C1 | 7.42% |
| Cc1ccc2nc(-c3ccc4c(c3)OCCO4)cc(C(=O)O)c2c1 | 8.22% |
| COc1ccc(OCCNC(=O)C(Cc2c[nH]c3ccccc23)NC(C)=O)cc1 (centres unmarked) | 4.38% |
| NS(=O)(=O)c1ccc(CCNC(=O)C(=O)c2c[nH]c3ccccc23)cc1 | 2.22% |
| Cc1ccc(C(C(=O)NCc2ccccc2)N(C(=O)c2csnn2)c2cccc3ccccc23)o1 (centres unmarked) | -0.148% |
| O=S(=O)(c1ccc(-n2cnnn2)cc1)N1CCNCC1 | -0.693% |

| SMILES | hERG current change (%, negative = inhibition) at 1uM |
| --- | --- |
| CCC(Sc1nc2n[nH]c(C)c2c(=N)n1-c1cccc(Cl)c1)C(=O)NCCOC (centres unmarked) | -0.659% |
| CN(C(=O)CSC1=NCCS1)c1ccccc1 | 18.1% |
| COc1ccccc1NC(=O)N1CCCC1C(=O)NCc1cccs1 (centres unmarked) | 4.45% |
| CC(C)(C)NC(=O)Cc1ccc(S(=O)(=O)N2CCCC2)s1 | 21.3% |
| O=c1oc2cc(Br)ccc2n1Cc1ccccc1 | 15.8% |
| Cc1ccnc(SCCn2c(N3CCN(c4ccccc4)CC3)nc3c2c(=O)[nH]c(=O)n3C)n1 | 1.34% |
| COc1ccc(Cl)cc1S(=O)(=O)NCc1cccnc1 | 6.51% |
| Cc1nc(-c2ccc(F)cc2)c(CC(=O)N(C)CC(=O)Nc2ccccc2Cl)s1 | 5.44% |
| Cc1ccc(C(=O)NCC(=O)N2CCCCCC2)cc1 | 17.9% |
| Cc1ccc(C=Nc2ccc(N(C)C)cc2)o1 | 3.51% |
| COc1cc(OC)cc(-c2nc(-c3ccc(Br)cc3)no2)c1 | 6.64% |
| Cc1ccc(-c2ccnc3nc(-n4cccc4)nn23)o1 | 10.1% |
| C#CCSc1n[nH]c(=O)n1-c1cccc(C(F)(F)F)c1 | 9.39% |
| COCC(C)OC(=O)c1c(N)n(-c2ccc(OC)c(OC)c2)c2nc3ccccc3nc12 (centres unmarked) | 7.58% |
| COc1ccc(S[C@@H](CCN2CC[C@H](O)CCC2=O)c2ccccc2)cc1 | 11.9% |
| O=S(=O)(c1ccc2nc(-c3ccccc3)[nH]c2c1)N1CCN(c2ccc(Cl)cc2)CC1 | 5.61% |
| COc1cccc(C(=O)Nc2ccc(F)cc2F)c1 | -1.27% |
| CCOC(=O)c1c(C)nsc1NCc1ccccc1 | 8.43% |
| Cc1cccc(C)c1NC(=O)C(C)N (centres unmarked) | -5.46% |
| CCS(=O)(=O)N1CCC(C(=O)NCCc2ccc(OC)c(OC)c2)CC1 | 2.7% |

| SMILES | hERG current change (%, negative = inhibition) at 1uM |
| --- | --- |
| Cc1cc(=O)n2nc(N3CCCC3C(=O)NCc3ccccn3)sc2n1 (centres unmarked) | 9.3% |
| Cn1c(C(=O)OC(C(=O)NCC2CCCO2)c2cccnc2)cc2sccc21 (centres unmarked) | 5.86% |
| O=C1c2cccc3c([N+](=O)[O-])ccc(c23)C(=O)N1O | 6.83% |
| COc1cccc(NC(=O)Nc2ccncc2)c1 | 13.7% |
| CCCSC1=C(C#N)C(c2cc(OC)ccc2OC)CC(=O)N1 (centres unmarked) | 15.3% |
| COc1ccc(CC(=O)Nc2nc(-c3cccnc3)cs2)cc1 | 8.63% |
| CN(C)c1ccc(N2C(=O)CC(c3ccccc3)CC2=O)cc1 | 9.47% |
| Cc1nnc2n(-c3ccccc3)c(=O)c3ccccc3n12 | 14.1% |
| Cc1ccc(-n2c(-c3ccc(Br)cc3)c[n+]3c2CCc2ccc4cccnc4c2-3)cc1.[Br-] | -86.6% |
| Cc1cccc(NS(=O)(=O)c2nnc(NC(=O)c3cccc(C)c3)s2)c1 | 10.1% |
| Cc1cc(OCC(=O)OCC(=O)NCc2ccc3c(c2)OCO3)ccc1Cl | 22.1% |
| CCC(=O)N1CCN(c2ccccc2NC(=O)Cc2ccc(Cl)cc2)CC1 | -41.5% |
| O=CN1CCN(C2CC(=O)N(c3ccc(Br)cc3)C2=O)CC1 (centres unmarked) | 6.78% |
| N#Cc1c(N2CCOCC2)nc(-c2ccco2)c2c1CCCC2 | 8.37% |
| Cl.O=c1cc(-c2ccccc2)[nH]n1-c1nc2ccccc2[nH]1 | 2.47% |
| CCCCNS(=O)(=O)c1ccc2nc(-c3cccnc3)cc(C(=O)NC(C)C)c2c1 | 11.9% |
| CCC(=O)Nc1ccc(N2CCC(C)CC2)cc1 | 18% |
| Clc1ccc2c(c1)nc1n2CCCC1 | 10.9% |
| Cc1occc1-c1nnc(SCC(=O)N(C)c2ccccc2)n1C | 2.97% |

From article PMC4336329 (PLoS ONE, 2015)
